Measured values from the antibiotic and cytotoxicity screens of Wong et al. (2023).
The list shows a part of the results.

Key:
[1] = tested on: HSkMC (human skeletal muscle cells); assay: cytotoxicity call (relative viability < 0.9); settings: 10 µM
[2] = tested on: HepG2; assay: cytotoxicity call (relative viability < 0.9); settings: 10 µM
[3] = tested on: S. aureus RN4220; assay: growth inhibition call (relative growth <= 0.2); settings: 50 µM

For `N=C(N)c1ccc(C(N)=O)cc1`, the cytotoxicity call [1] was “inactive”, the cytotoxicity call [2] was “inactive” and the growth inhibition call [3] was “inactive”.
With `Cc1noc(C)c1S(=O)(=O)N(C)C[C@@H]1Oc2ccc(N(C)C)cc2CC(=O)N([C@H](C)CO)C[C@H]1C` the cytotoxicity call [1] was “inactive”, the cytotoxicity call [2] was “inactive” and the growth inhibition call [3] was “inactive”.
`NC(=O)C[C@H]1Sc2ccccc2NC1=O` was tested, and the cytotoxicity call [1] was “inactive”, the cytotoxicity call [2] was “inactive” and the growth inhibition call [3] was “inactive”.
`C[C@H](CO)N1C[C@H](C)[C@H](CN(C)C(=O)Nc2ccc(F)cc2)Oc2ncc(C#CCN(C)C)cc2C1=O` was tested, and the cytotoxicity call [1] was “inactive”, the cytotoxicity call [2] was “inactive” and the growth inhibition call [3] was “inactive”.
In the case of `Cc1noc(C)c1S(=O)(=O)N(C)C[C@H]1Oc2ccc(NS(=O)(=O)c3ccccc3)cc2C(=O)N([C@@H](C)CO)C[C@H]1C`, the cytotoxicity call [1] is reported as “inactive”, the cytotoxicity call [2] is reported as “inactive” and the growth inhibition call [3] is reported as “inactive”.
With `COC(=O)[C@H](Cc1ccccc1)N1CC2=CCCC=C[C@H]2[C@@H]1[C@@H](O)CCn1cc(-c2ccc(C(=O)NO)s2)nn1` the cytotoxicity call [1] was “inactive”, the cytotoxicity call [2] was “inactive” and the growth inhibition call [3] was “inactive”.
With `C[C@@H]1CCCCO[C@H](CN(C)C(=O)Cc2ccccc2)[C@@H](C)CN([C@H](C)CO)C(=O)c2cc(NC(=O)c3ccccc3)ccc2O1` the cytotoxicity call [1] was “inactive”, the cytotoxicity call [2] was “inactive” and the growth inhibition call [3] was “inactive”.
With `C[C@H]1CN([C@@H](C)CO)C(=O)c2cc(NC(=O)CCC(F)(F)F)ccc2O[C@@H]1CN(C)S(=O)(=O)c1cn(C)cn1` the cytotoxicity call [1] was “inactive”, the cytotoxicity call [2] was “inactive” and the growth inhibition call [3] was “inactive”.
For `C[C@@H]1CCCCO[C@H](CN(C)Cc2ccccc2)[C@@H](C)CN([C@H](C)CO)C(=O)c2cc(NC(=O)NC3CCCCC3)ccc2O1`, the cytotoxicity call [1] was “inactive”, the cytotoxicity call [2] was “inactive” and the growth inhibition call [3] was “inactive”.
With `C[C@@H]1CN([C@H](C)CO)C(=O)c2cc(C#CC3(O)CCCC3)cnc2O[C@@H]1CN(C)C(=O)C1CCCCC1` the cytotoxicity call [1] was “inactive”, the cytotoxicity call [2] was “inactive” and the growth inhibition call [3] was “inactive”.
With `C[C@@H]1CN([C@@H](C)CO)C(=O)Cc2cc(NC(=O)CCC(F)(F)F)ccc2O[C@@H]1CN(C)C(=O)Nc1ccc(C(F)(F)F)cc1` the cytotoxicity call [1] was “inactive”, the cytotoxicity call [2] was “inactive” and the growth inhibition call [3] was “inactive”.
`COc1ccc2occ(C(C)=O)c2c1` was tested, and the cytotoxicity call [1] was “inactive”, the cytotoxicity call [2] was “inactive” and the growth inhibition call [3] was “inactive”.
`COc1cccc(NC(=O)N(C)C[C@H]2Oc3ncc(C#Cc4cccnc4)cc3C(=O)N([C@H](C)CO)C[C@H]2C)c1` was tested, and the cytotoxicity call [1] was “inactive”, the cytotoxicity call [2] was “inactive” and the growth inhibition call [3] was “inactive”.
For `CC(C)C#Cc1ccc2c(c1)O[C@@H](CN(C)C(=O)Cc1ccccn1)[C@@H](C)CN([C@H](C)CO)S2(=O)=O`, the cytotoxicity call [1] was “inactive”, the cytotoxicity call [2] was “inactive” and the growth inhibition call [3] was “inactive”.
In the case of `O=C(C[C@@H]1C[C@@H]2c3cc(NS(=O)(=O)c4ccc(F)cc4)ccc3O[C@@H]2[C@@H](CO)O1)NCc1ccccn1`, the cytotoxicity call [1] is reported as “inactive”, the cytotoxicity call [2] is reported as “inactive” and the growth inhibition call [3] is reported as “inactive”.
In the case of `COc1ccc(C2=C(N)C(=O)NC2=O)cc1OC`, the cytotoxicity call [1] is reported as “inactive”, the cytotoxicity call [2] is reported as “inactive” and the growth inhibition call [3] is reported as “inactive”.
`NCCCCN` was tested, and the cytotoxicity call [1] was “inactive”, the cytotoxicity call [2] was “inactive” and the growth inhibition call [3] was “inactive”.
With `COCC(=O)N(C)C[C@H]1Oc2cc(C#Cc3ccccc3)ccc2S(=O)(=O)N([C@H](C)CO)C[C@@H]1C` the cytotoxicity call [1] was “inactive”, the cytotoxicity call [2] was “inactive” and the growth inhibition call [3] was “inactive”.
With `Cc1noc(C)c1NC(=O)N(C)C[C@H]1Oc2ncc(C#CCN(C)C)cc2C(=O)N([C@H](C)CO)C[C@H]1C` the cytotoxicity call [1] was “inactive”, the cytotoxicity call [2] was “inactive” and the growth inhibition call [3] was “inactive”.
`C[C@@H]1CN([C@@H](C)CO)C(=O)CCCn2nncc2CO[C@@H]1CN(C)C(=O)Nc1cccc(C(F)(F)F)c1` was tested, and the cytotoxicity call [1] was “inactive”, the cytotoxicity call [2] was “inactive” and the growth inhibition call [3] was “inactive”.
With `C[C@@H]1CN([C@@H](C)CO)C(=O)c2cccc(NC(=O)Nc3ccccc3)c2O[C@H]1CN(C)CC1CCCCC1` the cytotoxicity call [1] was “inactive”, the cytotoxicity call [2] was “inactive” and the growth inhibition call [3] was “inactive”.
In the case of `OCCNC(=S)NC1CCCC1`, the cytotoxicity call [1] is reported as “inactive”, the cytotoxicity call [2] is reported as “inactive” and the growth inhibition call [3] is reported as “inactive”.
In the case of `CCCC(=O)Nc1nc2[nH]c(C)cc(=O)n2n1`, the cytotoxicity call [1] is reported as “inactive”, the cytotoxicity call [2] is reported as “inactive” and the growth inhibition call [3] is reported as “inactive”.
In the case of `C[C@H](CO)N1C[C@H](C)[C@@H](CN(C)Cc2ccc3c(c2)OCO3)Oc2cc(Br)ccc2S1(=O)=O`, the cytotoxicity call [1] is reported as “inactive”, the cytotoxicity call [2] is reported as “inactive” and the growth inhibition call [3] is reported as “inactive”.
`COc1ccc(NC(=O)N(C)C[C@H]2Oc3ncc(C#CC(C)C)cc3C(=O)N([C@@H](C)CO)C[C@@H]2C)cc1` was tested, and the cytotoxicity call [1] was “inactive”, the cytotoxicity call [2] was “inactive” and the growth inhibition call [3] was “inactive”.
`CCCNC(=O)N(C)C[C@H]1Oc2cc(C#Cc3cccc(F)c3)ccc2S(=O)(=O)N([C@@H](C)CO)C[C@@H]1C` was tested, and the cytotoxicity call [1] was “inactive”, the cytotoxicity call [2] was “inactive” and the growth inhibition call [3] was “inactive”.
In the case of `C[C@@H]1CN([C@H](C)CO)C(=O)Cc2cc(NS(C)(=O)=O)ccc2O[C@H]1CN(C)S(=O)(=O)c1ccc(Cl)cc1`, the cytotoxicity call [1] is reported as “inactive”, the cytotoxicity call [2] is reported as “inactive” and the growth inhibition call [3] is reported as “inactive”.
With `CC(C)NC(=O)Nc1cccc2c1O[C@H](CN(C)S(=O)(=O)c1ccc(F)cc1)[C@@H](C)CN([C@@H](C)CO)C2=O` the cytotoxicity call [1] was “inactive”, the cytotoxicity call [2] was “inactive” and the growth inhibition call [3] was “inactive”.
`COc1ccc(NC(=O)Nc2ccc3c(c2)C(=O)N([C@@H](C)CO)C[C@H](C)[C@H](CN(C)Cc2ccc(C(F)(F)F)cc2)OCCCC[C@@H](C)O3)cc1` was tested, and the cytotoxicity call [1] was “inactive”, the cytotoxicity call [2] was “inactive” and the growth inhibition call [3] was “inactive”.
`C[C@H]1CN([C@@H](C)CO)C(=O)Cc2cc(NC(=O)C3CCCCC3)ccc2O[C@@H]1CN(C)Cc1ccc(C(F)(F)F)cc1` was tested, and the cytotoxicity call [1] was “inactive”, the cytotoxicity call [2] was “active” and the growth inhibition call [3] was “inactive”.
`O=C(C[C@@H]1C=C[C@@H](NC(=O)CN2CCOCC2)[C@@H](CO)O1)NCc1cccc(F)c1` was tested, and the cytotoxicity call [1] was “inactive”, the cytotoxicity call [2] was “inactive” and the growth inhibition call [3] was “inactive”.
`CO[C@H]1CN(C)C(=O)c2cc(NC(=O)NC(C)C)ccc2OC[C@H](C)N(Cc2ccc(-c3ccccn3)cc2)C[C@H]1C` was tested, and the cytotoxicity call [1] was “inactive”, the cytotoxicity call [2] was “inactive” and the growth inhibition call [3] was “inactive”.
With `COC(=O)c1cccnc1` the cytotoxicity call [1] was “inactive”, the cytotoxicity call [2] was “inactive” and the growth inhibition call [3] was “inactive”.
For `C[C@H]1CN([C@@H](C)CO)C(=O)c2cccc(NC(=O)Nc3ccc4c(c3)OCO4)c2O[C@@H]1CN(C)S(C)(=O)=O`, the cytotoxicity call [1] was “inactive”, the cytotoxicity call [2] was “inactive” and the growth inhibition call [3] was “inactive”.
In the case of `COC(=O)C1=C2CC[C@H](COC(=O)NCCCCCC(=O)NO)NC(=O)N[C@H](Cc3ccccc3)c3cn(nn3)C[C@@H](Cc3ccccc3)NC(=O)c3oc(c(C(=O)OC)c3C(=O)OC)CC[C@H](COC(=O)NCCCCCC(=O)NO)NC(=O)N[C@H](Cc3ccccc3)c3cn(nn3)C[C@@H](Cc3ccccc3)NC(=O)C(=C1C(=O)OC)O2`, the cytotoxicity call [1] is reported as “inactive”, the cytotoxicity call [2] is reported as “inactive” and the growth inhibition call [3] is reported as “inactive”.
In the case of `C[C@H](CO)N1C[C@H](C)[C@H](CN(C)C(=O)Cc2ccccc2)OCCCC[C@H](C)Oc2ccc(NC(=O)Nc3ccc4c(c3)OCO4)cc2C1=O`, the cytotoxicity call [1] is reported as “inactive”, the cytotoxicity call [2] is reported as “active” and the growth inhibition call [3] is reported as “inactive”.
`C[C@@H]1CN([C@H](C)CO)C(=O)Cc2cc(NC(=O)CCN3CCOCC3)ccc2O[C@@H]1CN(C)S(=O)(=O)c1cn(C)cn1` was tested, and the cytotoxicity call [1] was “inactive”, the cytotoxicity call [2] was “inactive” and the growth inhibition call [3] was “inactive”.
For `CC(C)N1C[C@H](C)[C@@H](CN(C)Cc2ccc(Oc3ccccc3)cc2)Oc2c(NC(=O)C3CCN(C)CC3)cccc2C1=O`, the cytotoxicity call [1] was “inactive”, the cytotoxicity call [2] was “active” and the growth inhibition call [3] was “inactive”.
For `NNC(=O)c1cccc(Cn2cccn2)c1`, the cytotoxicity call [1] was “inactive”, the cytotoxicity call [2] was “inactive” and the growth inhibition call [3] was “inactive”.
`CCC(=O)Nc1ccc2c(c1)C(=O)N(C)C[C@H](OC)[C@@H](C)CN(C(=O)CN1CCOCC1)[C@H](C)CO2` was tested, and the cytotoxicity call [1] was “inactive”, the cytotoxicity call [2] was “inactive” and the growth inhibition call [3] was “inactive”.
With `COc1ccc2c(O[C@H]3CCCC[C@@H]3OC)nccc2c1-n1ccnc1-c1c[nH]c2c(N)c(F)cc(C#N)c12` the cytotoxicity call [1] was “inactive”, the cytotoxicity call [2] was “active” and the growth inhibition call [3] was “inactive”.
With `O=C(O)CCCCCCNC(=O)c1ccc(NCc2cn(Cc3ccc(Cn4cc(CNc5ccc(C(=O)NCCCCCCC(=O)NO)cc5)nn4)cc3)nn2)cc1` the cytotoxicity call [1] was “inactive”, the cytotoxicity call [2] was “inactive” and the growth inhibition call [3] was “inactive”.
With `CO[C@H](C(=O)N(C)C[C@@H]1OCc2ccccc2-c2c(n(C)c3ccccc23)C(=O)N([C@@H](C)CO)C[C@@H]1C)c1ccccc1` the cytotoxicity call [1] was “inactive”, the cytotoxicity call [2] was “inactive” and the growth inhibition call [3] was “inactive”.
With `COc1ccc(S(=O)(=O)N(C)C[C@@H]2OCCCC[C@@H](C)Oc3ccc(NC(=O)Nc4ccccc4)cc3C(=O)N([C@@H](C)CO)C[C@@H]2C)cc1` the cytotoxicity call [1] was “inactive”, the cytotoxicity call [2] was “inactive” and the growth inhibition call [3] was “inactive”.
`COCC(=O)N1CC[C@]2(CC1)CN([C@@H](CO)c1c2c2ccc(cc2n1C)OC)C(=O)CN1CCOCC1` was tested, and the cytotoxicity call [1] was “inactive”, the cytotoxicity call [2] was “inactive” and the growth inhibition call [3] was “inactive”.
